“And” between values parts separate entries of the source, which are not always exact repeats. Equal values may be shown once. Among all 390,000 compounds or so, about 150 (0.038%) were called active. The inconclusive results got no clear call from the source; some entries with a clear call stand among them for comparison. Calls come from the whole dose curve; as a rule, active = well fitted inhibition curve with a large enough effect; inconclusive = small, poorly fitted or top-dose-only effect; inactive = no such curve, though single readings can be large or run the other way. Where the call is inconclusive, the potency comes from a doubtful curve fit.
What follows are compounds tested against Regulator of G-protein signaling 4 (Homo sapiens) (UniProt P49798) (assay: Inhibitors of Regulator of G Protein Signaling (RGS) 4: qHTS). Settings: Transcreener GDP fluorescence polarization, RGS4-accelerated GTP hydrolysis; series mostly up to 114 µM; activity change, negative = inhibition: at the top concentration.
Sequence of UniProt P49798 (P49798 whole entry, looked up): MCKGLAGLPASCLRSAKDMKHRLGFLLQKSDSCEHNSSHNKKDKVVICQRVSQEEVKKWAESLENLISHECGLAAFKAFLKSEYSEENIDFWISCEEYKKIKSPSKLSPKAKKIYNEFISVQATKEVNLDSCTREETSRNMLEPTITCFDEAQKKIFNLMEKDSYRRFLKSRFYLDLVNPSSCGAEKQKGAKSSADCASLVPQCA
Outline: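 MLSMR compounds (23 nl, pin-transferred) preincubated 10 min at room temperature with a 500nM (2x) first reagent, then RGS4 at 900nM (2x) plus Transcreener GDP mix added; fluorescence polarization (620/688 nm) read before and after 90 min at 30 °C.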
% is set by controls: 0 for no effect and ±100 for the full control effect; potency is the fitted concentration of half-maximal effect; tags give direction and shape of the fitted curve.
Note: nearly all actives have a fitted effect of over 75% in size.

Question: How did the Potency turn out when `O=C(O)COc1c(Cl)cc(/C=C2/NC(=O)NC2=O)cc1Br` was run?
Answer: The Potency was inconclusive: 100 µM [inhibitor, partial curve, poor fit].

Question: How did the Potency turn out when `O=C(CN1C(=O)/C(=C/c2ccccc2)SC1=S)NNC(=O)c1ccccc1O` was run?
Answer: Its Potency is inconclusive: 100 µM [inhibitor, partial curve, poor fit].

Question: `Cc1[nH][nH]c(=O)c1C(c1c(C)[nH][nH]c1=O)c1cn(Cc2ccccc2Cl)c2ccccc12` was tested. Which Potency did it give?
Answer: Its Potency is inconclusive: 20 µM [inhibitor, full curve, poor fit].

Question: Which Potency does the source give for `Cc1occc1-c1nnc(SCC(=O)N2CC(=O)Nc3ccccc32)n1CC(C)C` here?
Answer: Its Potency is inconclusive: 50.1 µM [inhibitor, partial curve, poor fit].

Question: For `Cc1ccc(N2CCN(C3=NC(=O)/C(=C\c4cn[nH]c4-c4ccccc4)S3)CC2)cc1`, which Potency is on record?
Answer: The Potency was inconclusive: 56.2 µM [inhibitor, partial curve, poor fit].

Question: Which Potency does the source give for `Cc1ccc(CN(C)C(=O)C2CCCN2C(=O)c2cccs2)o1` (stereo not drawn) here?
Answer: The Potency was inconclusive: 56.2 µM [inhibitor, partial curve, poor fit].

Question: `CC(=O)Oc1ccc(C(=O)Nc2cccc(C(=O)c3cccc(NC(=O)c4ccc(OC(C)=O)cc4)c3)c2)cc1` was tested. Which Potency did it give?
Answer: The Potency was inconclusive: 70.8 µM [inhibitor, partial curve, poor fit].

Question: Which “activity change, negative = inhibition” value does the source give for `COc1ccc(NC(=O)c2coc3ccccc23)cc1OC` here?
Answer: Its value is inactive: -16.5%.

Question: How did the activity change, negative = inhibition turn out when `C[N+](C)(C)CCCC(=O)c1ccc2c(c1)OCO2` was run?
Answer: Its activity change, negative = inhibition is inactive: 3.36% [at 11.4 µM].

Question: `NC(=O)Cn1c(=O)n(CCCC(=O)NC2CCN(Cc3ccccc3)CC2)c(=O)c2ccccc21` was tested. Which Potency did it give?
Answer: The Potency was inconclusive: 100 µM [inhibitor, single point].

Question: `O=C1c2ccccc2CC1Sc1nnc(-c2ccncc2)o1` (stereo not drawn) was tested. Which Potency did it give?
Answer: The Potency was inconclusive: 100 µM [inhibitor, single point].

Question: `CCn1cc(CN2CCCC(C(=O)c3ccc(-c4ccccc4)cc3)C2)cn1` (stereo not drawn) was tested. Which “activity change, negative = inhibition” value did it give?
Answer: The value was inactive: -1.29%.

Question: For `COc1ccccc1NS(=O)(=O)c1cc(N)ccc1N1CCCC1`, which Potency is on record?
Answer: Its Potency is inconclusive: 56.2 µM [inhibitor, partial curve, poor fit].

Question: `Fc1cccc(CSc2ccc(-c3ccc4c(c3)OCO4)nn2)c1` was tested. Which “activity change, negative = inhibition” value did it give?
Answer: The value was inactive: -9.83%.

Question: Which Potency does the source give for `COc1ccccc1CNC(=O)CCC1N=C2c3ccccc3N=C(SCC(=O)NCCc3ccccc3)N2C1=O` (stereo not drawn) here?
Answer: The Potency was inconclusive: 100 µM [inhibitor, single point].

Question: How did the Potency turn out when `COC(=O)C(Cc1c[nH]c2ccccc12)NC(=O)c1cc(-c2ccc(OC)c(OC)c2)oc1C` (stereo not drawn) was run?
Answer: Its Potency is inconclusive: 70.8 µM [inhibitor, partial curve, poor fit].

Question: For `COc1ccccc1C(=O)N/C(=C/c1ccc(Br)cc1)C(=O)N1CCCC1`, which Potency is on record?
Answer: Its Potency is inconclusive: 56.2 µM [inhibitor, partial curve, poor fit].

Question: How did the “activity change, negative = inhibition” value turn out when `COc1cccc(OCCn2cc(C(=O)c3ccco3)c3ccccc32)c1` was run?
Answer: The value was inactive: -9.85%.

Question: With `CC1O[C@@H](OCC2O[C@@H](Oc3cc(O)c4c(c3)OC(c3ccc(O)cc3)CC4=O)[C@H](O)[C@@H](O)[C@@H]2O)[C@H](O)[C@H](O)[C@H]1O` (stereo partly drawn) as the compound, how does the “activity change, negative = inhibition” value read?
Answer: The value was inactive: -3.26%.

Question: For `CNc1nc(N/N=C/c2ccc([N+](=O)[O-])cc2)nc(Nc2ccccc2)n1`, which Potency is on record?
Answer: The Potency was inconclusive: 50.1 µM [inhibitor, partial curve, poor fit].

Question: `O=C(CCN1C(=O)/C(=C\c2cccs2)SC1=S)Nc1ccc(C(=O)O)cc1` was tested. Which “activity change, negative = inhibition” value did it give?
Answer: Its value is inactive: -18%.

Question: How did the Potency turn out when `NC(=S)NNc1c(F)c(F)c(F)c(F)c1F` was run?
Answer: The Potency was inconclusive: 50.1 µM [inhibitor, partial curve, poor fit].

Question: With `CC1(C)Cc2c(c(N3CCOCC3)nc3sc(C(=O)N4CCCCC4)c(N)c23)CO1` as the compound, how does the Potency read?
Answer: The Potency was inconclusive: 50.1 µM [inhibitor, partial curve, poor fit].

Question: Which Potency does the source give for `COc1cccc(NC(=O)CSCC(=O)Nc2ccccc2)c1` here?
Answer: The Potency was inconclusive: 79.4 µM [inhibitor, single point].

Question: With `O=C(/C=N/O)Nc1ccc2sc3ccccc3c2c1` as the compound, how does the “activity change, negative = inhibition” value read?
Answer: Its value is inactive: -18.4%.

Question: `COc1ccc(C)cc1NC(=O)c1ccccc1NS(=O)(=O)c1ccc(Cl)s1` was tested. Which “activity change, negative = inhibition” value did it give?
Answer: Its value is inactive: -2.21%.

Question: Which “activity change, negative = inhibition” value does the source give for `COc1ccc(S(=O)(=O)N2CCN(C(=O)[C@H](Cc3ccccc3)NC(=O)c3ccco3)CC2)cc1` here?
Answer: The value was inactive: 8.36%.

Question: How did the Potency turn out when `C/C=C/C=C/C(=O)N1CC2(CC(c3cccc(NC(=O)CCCCC)c3)=NO2)C[C@H]1C(N)=O` (stereo partly drawn) was run?
Answer: Its Potency is inconclusive: 28.2 µM [inhibitor, full curve, poor fit].

Question: With `Cc1ccc(CNC(=O)c2cc3c(s2)CS(=O)(=O)C3)cc1` as the compound, how does the “activity change, negative = inhibition” value read?
Answer: Its value is inactive: -2.99% [at 56.9 µM].

Question: Which Potency does the source give for `CCOc1ccc(NC(=O)Cn2nnc(C(=O)NCCc3ccccc3)c2N)cc1` here?
Answer: Its Potency is inconclusive: 89.1 µM [inhibitor, single point].

Question: Which “activity change, negative = inhibition” value does the source give for `CC1Cc2ccccc2N1C(=O)CN1C(=O)COc2ccccc21` (stereo not drawn) here?
Answer: Its value is inactive: 13.9%.

Question: Which “activity change, negative = inhibition” value does the source give for `CCOC(=O)/C(=C/C=C1\Sc2cc(OCC)c(OCC)cc2N1CC)C(C)=O` here?
Answer: The value was inactive: -7.07%.

Question: How did the “activity change, negative = inhibition” value turn out when `COc1ccc(-c2csc(N(CCc3ccccc3)C(=O)COc3ccccc3)n2)cc1` was run?
Answer: The value was inactive: 18.5%.

Question: For `CCCc1nnc(NC(=O)CN2C(=O)c3ccccc3S2(=O)=O)s1`, which Potency is on record?
Answer: Its Potency is inconclusive: 44.7 µM [inhibitor, partial curve, poor fit].

Question: Which Potency does the source give for `COc1ccc(NC(=S)NNS(=O)(=O)c2ccc3ccccc3c2)c(OC)c1` here?
Answer: Its Potency is inconclusive: 56.2 µM [inhibitor, partial curve, poor fit].

Question: Which Potency does the source give for `Cc1nc2scc(-c3ccco3)c2c(=O)n1/N=C/N(C)C` here?
Answer: The Potency was inconclusive: 50.1 µM [inhibitor, partial curve, poor fit].

Question: For `CCOC(=O)N1CC=C2C(C#N)=C(N)C(C#N)(C#N)[C@H](c3ccccc3OCC)[C@H]2C1`, which Potency is on record?
Answer: Its Potency is inconclusive: 17.8 µM [inhibitor, full curve, poor fit].

Question: How did the Potency turn out when `Cc1ccc(C(=O)NC(=S)Nc2ccc3c(c2)OCCO3)c(C)c1` was run?
Answer: Its Potency is inconclusive: 100 µM [inhibitor, partial curve, poor fit].

Question: Which Potency does the source give for `CCCCc1ccc(/C=C(\C#N)C(N)=S)s1` here?
Answer: The Potency was inconclusive: 35.5 µM [inhibitor, partial curve, poor fit].

Question: Which Potency does the source give for `O=C(Nc1ccccc1)C1C2/C=C\CCCCC21` (stereo not drawn) here?
Answer: The Potency was inconclusive: 50.1 µM [inhibitor, partial curve, poor fit].

Question: `CC1CC(C)CN(C(=O)c2ccncc2)C1` (stereo not drawn) was tested. Which Potency did it give?
Answer: Its Potency is inconclusive: 70.8 µM [inhibitor, single point].

Question: With `CCOC(=O)c1c(C)oc2c1c(CN1CCN(CCO)CC1)c(O)c1ccccc12` as the compound, how does the Potency read?
Answer: The Potency was inconclusive: 28.2 µM [inhibitor, full curve, poor fit].

Question: For `CC(=O)Nc1ccc(S(=O)(=O)Oc2ccc(C(=S)N3CCCCC3)cc2)cc1`, which Potency is on record?
Answer: Its Potency is inconclusive: 89.1 µM [inhibitor, partial curve, poor fit].

Question: `COc1cc(/C=C(/C#N)c2nc3ccccc3[nH]2)ccc1OCc1ccc(C(=O)O)o1` was tested. Which Potency did it give?
Answer: Its Potency is inconclusive: 70.8 µM [inhibitor, partial curve, poor fit].

Question: For `Cc1nc(NC(=S)NC(=O)c2cncc(Br)c2)ccc1Br`, which Potency is on record?
Answer: The Potency was inconclusive: 17.8 µM [inhibitor, full curve, poor fit].

Question: With `O=C(O)c1ccc2c(c1)C(=O)N(c1cccc(C(=O)/C=C/c3ccccc3)c1)C2=O` as the compound, how does the Potency read?
Answer: The Potency was inconclusive: 28.2 µM [inhibitor, full curve, poor fit].

Question: Which Potency does the source give for `Cc1ccc2c(c1)S/C(=C\c1cccc[n+]1C)N2CCO` here?
Answer: The Potency was inconclusive: 89.1 µM [inhibitor, partial curve, poor fit].

Question: Which “activity change, negative = inhibition” value does the source give for `O=S(=O)(Cc1ccccc1Cl)c1ncn[nH]1` here?
Answer: Its value is inactive: -2.22%.

Question: For `Cc1ccc(CCNC(=O)c2cn(C)c3ccc(S(=O)(=O)N4CCC(C)CC4)cc3c2=O)cc1`, which “activity change, negative = inhibition” value is on record?
Answer: The value was inactive: 5.71%.

Question: How did the “activity change, negative = inhibition” value turn out when `CC(=O)c1cc(F)c(N2CCOCC2)cc1C` was run?
Answer: The value was inactive: 4.55%.

Question: For `COc1ccc(SCCN2CCN(CCc3ccccc3)CCC2=O)cc1`, which Potency is on record?
Answer: Its Potency is inconclusive: 79.4 µM [inhibitor, partial curve, poor fit].

Question: How did the Potency turn out when `CC(=O)NCCC(=O)Nc1nc(-c2c[nH]c3ccccc23)cs1` was run?
Answer: The Potency was inconclusive: 17.8 µM [inhibitor, full curve, poor fit].

Question: Which “activity change, negative = inhibition” value does the source give for `CO[C@H]1C=CO[C@@]2(C)Oc3c(C)c(O)c4c(O)c(c(C=NN5CCN(C)CC5)c(O)c4c3C2=O)NC(=O)C(C)=CC=C[C@H](C)[C@H](O)[C@@H](C)[C@@H](O)[C@@H](C)[C@H](OC(C)=O)[C@@H]1C` here?
Answer: The value was inactive: -16%.

Question: `C=CCn1c(=O)c2ccccc2n2c(Sc3nnnn3-c3ccccc3)nnc12` was tested. Which “activity change, negative = inhibition” value did it give?
Answer: The value was inactive: 27.5%.

Question: `C=CC(=O)Nc1ccc(Nc2ccnc(Nc3ccc(N4CCN(C)CC4)cc3)n2)cc1` was tested. Which Potency did it give?
Answer: Its Potency is inconclusive: 70.8 µM [inhibitor, single point].

Question: Which Potency does the source give for `Cc1nn(-c2ccccc2)cc1/C=N/NC(N)=S` here?
Answer: Its Potency is inconclusive: 17.8 µM [inhibitor, full curve, poor fit].

Question: How did the Potency turn out when `CCOC(=O)C(C)Sc1nc(=O)n2ccccc2n1` (stereo not drawn) was run?
Answer: Its Potency is inconclusive: 28.2 µM [inhibitor, full curve, poor fit].

Question: Which Potency does the source give for `CCOc1cc(C)c(S(=O)(=O)NC2CCCCC2)cc1C` here?
Answer: Its Potency is inconclusive: 70.8 µM [inhibitor, partial curve, poor fit].

Question: Which “activity change, negative = inhibition” value does the source give for `O=C(Oc1ccc(C(=S)N2CCCCC2)cc1)c1ccccc1F` here?
Answer: Its value is inactive: -7.01%.

Question: `Cc1nnc(SCc2ccccc2Cl)c2cc3sccc3n12` was tested. Which Potency did it give?
Answer: Its Potency is inconclusive: 50.1 µM [inhibitor, partial curve, poor fit].

Question: How did the “activity change, negative = inhibition” value turn out when `O=C(O)COc1ccccc1/C=N/NC(=O)c1ccc2c(c1)OCCO2` was run?
Answer: The value was inactive: 11.5%.

Question: Which Potency does the source give for `Clc1ccc2nsnc2c1NC1=NCCN1` here?
Answer: Its Potency is inconclusive: 474 nM [inhibitor, partial curve, poor fit] and inconclusive: 42.3 µM [inhibitor, single point].

Question: How did the “activity change, negative = inhibition” value turn out when `Cc1ccccc1S(=O)(=O)N1C[C@H]2CON(C)[C@H]2C[C@H]1c1cccc(-c2ccccc2)c1` was run?
Answer: The value was inactive: 7.39%.

— PubChem BioAssay AID504845 (National Center for Advancing Translational Sciences (NCATS), 2011)
